Results reported in PubChem BioAssay AID1460 (National Center for Advancing Translational Sciences (NCATS), 2008).
About 5,800 (2.1%) of roughly 270,000 compounds were called active. The shares of active, inactive and inconclusive entries below differ from those in the screen. Calls come from the whole dose curve; as a rule, active = well fitted inhibition curve with a large enough effect; inconclusive = small, poorly fitted or top-dose-only effect; inactive = flat fitted curve, though single readings scatter. Where the call is inconclusive, the potency comes from a doubtful curve fit.

What follows are compounds tested against Microtubule-associated protein tau (Homo sapiens) (UniProt P10636) (assay: qHTS for Inhibitors of Tau Fibril Formation, Thioflavin T Binding). Details: recombinant tau K18 P301L, heparin-induced fibrillization, ThT fluorescence; series mostly up to 57.4 µM; activity, negative = inhibition: at the top concentration.
UniProt P10636, sequence (P10636 whole entry, looked up): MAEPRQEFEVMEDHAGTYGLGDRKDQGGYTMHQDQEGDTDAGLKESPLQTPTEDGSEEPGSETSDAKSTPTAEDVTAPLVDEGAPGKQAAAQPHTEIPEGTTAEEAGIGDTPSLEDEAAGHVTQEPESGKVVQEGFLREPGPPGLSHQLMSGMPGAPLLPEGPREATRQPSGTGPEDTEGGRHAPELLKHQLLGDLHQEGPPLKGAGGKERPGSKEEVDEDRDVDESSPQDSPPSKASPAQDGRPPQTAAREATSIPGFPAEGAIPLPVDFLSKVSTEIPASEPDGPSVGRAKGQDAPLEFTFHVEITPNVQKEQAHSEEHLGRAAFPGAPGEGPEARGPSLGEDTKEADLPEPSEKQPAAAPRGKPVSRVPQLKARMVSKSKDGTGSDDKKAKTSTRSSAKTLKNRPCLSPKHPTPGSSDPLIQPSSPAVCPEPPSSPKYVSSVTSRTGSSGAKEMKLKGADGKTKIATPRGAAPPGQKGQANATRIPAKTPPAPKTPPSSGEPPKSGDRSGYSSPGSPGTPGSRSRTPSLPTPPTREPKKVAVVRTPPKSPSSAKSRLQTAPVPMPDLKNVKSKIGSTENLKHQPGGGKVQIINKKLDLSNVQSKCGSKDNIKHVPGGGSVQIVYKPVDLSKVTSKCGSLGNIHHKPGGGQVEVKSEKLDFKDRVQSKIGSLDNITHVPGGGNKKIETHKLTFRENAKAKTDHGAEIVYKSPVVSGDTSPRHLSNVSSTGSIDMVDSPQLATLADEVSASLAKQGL
How it was run: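 ThT emission at 510 nm, taken 1 hr after adding 30 uM dye, quantifies aggregates formed when 20 uM heparin acts on human tau K18 P301L for 6 hr at 37 C.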
% is set by controls: 0 for no effect and ±100 for the full control effect; potency is the fitted concentration of half-maximal effect; tags give direction and shape of the fitted curve.
Note: nearly all actives have a fitted effect of over 55% in size.

| Compound | activity, negative = inhibition | Potency |
| --- | --- | --- |
| COc1ccc(-c2c(C#N)c(N)nc3sc(C(=O)c4ccccc4)c(N)c23)cc1 | inactive: -2.25% |  |
| Cc1ccc(/C=N/NC(=O)c2csc3c2CCCC3)cc1 |  | inconclusive: 31.6 µM [inhibitor, single point] |
| CCSC1=C(C#N)C(c2ccc(Cl)cc2)C2=C(CCCC2=O)N1 (stereo not given) | inactive: -0.615% |  |
| CC(C)COc1ccc(CNC(=S)N/N=C/c2ccc([N+](=O)[O-])cc2)cc1 |  | inconclusive: 3.16 µM [inhibitor, full curve] |
| COc1ccc(-c2nc(=S)n3ccsc3n2)cc1OC |  | inconclusive: 39.8 µM [inhibitor, single point] |
| COc1ccc(Nc2cc(C(=O)NCCCN(C)C3CCCCC3)c3ccccc3n2)c(OC)c1 |  | inconclusive: 12.6 µM [inhibitor, partial curve] |
| CCCCOc1cc(C)nc(NCc2ccccc2)n1 |  | inconclusive: 35.5 µM [inhibitor, single point] |
| O=S1(=O)C=C(N2CCCCC2)c2ccccc21 |  | inconclusive: 14.1 µM [inhibitor, partial curve] |
| COc1ccc(-c2cc(C)no2)cc1S(=O)(=O)N1CCOc2ccc(Cl)cc21 |  | inconclusive: 1 µM [inhibitor, single point] |
| Cc1ccc(/C=C/c2nc3ccccc3c(=O)n2CCc2ccccc2)cc1 | inactive: -11.5% |  |
| CCCCC(=O)NC(Nc1nc(C2CC2)cs1)(C(=O)OCC)C(F)(F)F (stereo not given) | inactive: -6.44% |  |
| COc1ccc(OC)c(NC(=O)Cn2cnc3c(cnn3-c3ccccc3)c2=O)c1 |  | inconclusive: 39.8 µM [inhibitor, single point] |
| CN(CCOC(=O)/C=C/c1ccco1)Cc1ccccc1 |  | inconclusive: 22.4 µM [inhibitor, partial curve] |
| CN(C)S(=O)(=O)c1cccc(C(=O)N=C2N=C3C=CC(Cl)=CN3Cc3ccccc32)c1 |  | inconclusive: 10 µM [inhibitor, partial curve] |
| O=c1[nH]c2ccccc2c2oc(CCl)nc12 |  | inconclusive: 35.5 µM [inhibitor, partial curve] |
| O=C(/C=C/c1ccco1)NC(=S)Nc1nc(-c2ccc3ccccc3c2)cs1 |  | inconclusive: 3.55 µM [inhibitor, partial curve] |
| C=CCn1c(-c2cccn(Cc3cccc(Cl)c3)c2=O)n[nH]c1=S | inactive: -7.28% |  |
| COc1ccc(CSCCc2n[nH]c(=S)n2-c2ccccc2)cc1C | inactive: -9.37% |  |
| CCN(CC)c1c([N+](=O)[O-])c(=O)n(C)c2ccccc12 | inactive: -14.4% |  |
| CCOc1ccc(N=C2SC(C(=O)Nc3ccccc3C#N)C(N)=C2C(=O)Nc2ccc(Cl)cc2)cc1 (stereo not given) |  | inconclusive: 5.01 µM [inhibitor, partial curve] |
